Data published in PubChem BioAssay AID1671194 (National Center for Advancing Translational Sciences (NCATS), 2021).
Hit rate of the full screen: of about 140,000 compounds, about 240 (0.17%) were called active. This list was built around the results that the source calls inconclusive (neither active nor inactive); the mix of calls is not that of the screen. The call rests on the fitted dose curve; in most records, active means well fitted inhibition curve with a large enough effect; inconclusive means small, poorly fitted or top-dose-only effect; inactive means no such curve, though single readings can be large or run the other way. Potencies of inconclusive entries are doubtful fits and often do not repeat.

Experiment: Primary qHTS assay for inhibitors of alpha-synuclein gene (SNCA) expression; further: nearly all actives have a fitted effect of over 45% in size
Conditions: HEK-293 SNCA-luciferase knock-in, luminescence, 24 h; series mostly up to 57.2 µM
Potency means the concentration at half of the fitted maximal effect; tags describe the fitted curve by direction and shape.

| Compound | Potency |
| --- | --- |
| Cn1nc(C2CCCN(C(=O)C3CCOCC3)C2)n(C2CCCC2)c1=O (stereo not given) | inconclusive: 39.8 µM [inhibitor, single point] |
| O=C1NC(=NC2CCCCC2)C2(CCCN(CC3CC3)C2)N1c1cc(F)cc(F)c1 (stereo not given) | inactive |
| COCCOCC1(CNCc2nccn2C)C[C@@H](O)[C@@H](O)C1 (stereo not given in full) | inconclusive: 0.891 µM [inhibitor, full curve, poor fit] |
| CCc1nncn1C1CCN(S(=O)(=O)c2ccccc2C)CC1 | inactive |
| CC(C)c1nc2n(n1)C1(CCCCC1)[C@@H]1CCCC[C@@H]1N2 | inconclusive: 7.94 µM [inhibitor, full curve, poor fit] |
| O=C(c1ccccc1Br)N1CCN(c2cc(-c3ccc(Cl)cc3)[nH]n2)CC1 | inconclusive: 31.6 µM [inhibitor, single point] |
| COc1ccccc1-c1nccc2c(=O)cc(-c3ccccn3)oc12 | inconclusive: 22.4 µM [inhibitor, partial curve, poor fit] |
| COc1cccc(C(=O)c2cn(CC(=O)NCCc3ccccc3)c3nc(C)ccc3c2=O)c1 | inconclusive: 7.08 µM [inhibitor, single point] |
| Cc1ccc(F)cc1-c1cccc(CCOc2cnc3c(ccn3CC(=O)O)c2)c1 | inactive |
| O=c1c(-c2ccccc2)nc2cncnc2n1-c1ccccc1 | inconclusive: 39.8 µM [inhibitor, single point] |
| Cc1ccc(-c2noc(-c3nnn4c3COC(c3ccc(C)cc3C)C4)n2)cc1 (stereo not given) | inconclusive: 4.47 µM [inhibitor, single point] |
| CCCC1c2nccn2CCCN1C(=O)c1cc(C)no1 (stereo not given) | inconclusive: 39.8 µM [inhibitor, single point] |
| COc1ccc(-c2nc(CCNC(=O)c3cccs3)cs2)cc1OC | inconclusive: 25.1 µM [inhibitor, partial curve] |
| Cc1cc(C)c(CNC(=O)c2cc(-c3ccccc3)cc3c2OCCN3C(C)C)c(=O)[nH]1 | inconclusive: 44.7 µM [inhibitor, partial curve, poor fit] |
| COc1ccc(OC)c(CNC(=O)Cc2cccn2-c2ccc(C)cc2)c1 | inconclusive: 44.7 µM [inhibitor, single point] |
| Clc1ccc(CNc2nc3ccccc3c3nc(-c4cccnc4)nn23)cc1 | inconclusive: 39.8 µM [inhibitor, single point] |
| COc1ccccc1CNC(=O)c1cc(Sc2cccc(Cl)c2)nc2ccccc12 | inconclusive: 25.1 µM [inhibitor, single point] |
| COc1cc(OC)c(NC(=O)C2=C(C)C(=O)OC23CCCCC3)cc1Cl | inconclusive: 39.8 µM [inhibitor, single point] |
| CCc1nc2c(c(-c3ccc(Cl)cc3)n1)CN(Cc1cccc3ccccc13)CC2 | inconclusive: 39.8 µM [inhibitor, single point] |
| COc1ccc(OC)c(NC(=O)CN2C(=O)NC3(CCS(=O)(=O)CC3)C2=O)c1 | inconclusive: 3.16 µM [inhibitor, single point] |

| Compound | Potency |
| --- | --- |
| Cc1c(C(=O)N2CCCC2)oc2c1-c1nn(CC(=O)NCc3cccc(F)c3)cc1CC2 | inconclusive: 39.8 µM [inhibitor, single point] |
| OCc1cnc(SCc2cccc(F)c2)n1Cc1ccc(F)cc1 | inconclusive: 25.1 µM [inhibitor, partial curve, poor fit] |
| COc1ccc2c(c1)CN(C(=O)COCc1ccccc1)CC[C@H]1COC(=O)N21 | inactive |
| O=C(C[C@H]1NC(=O)c2ccccc2NC1=O)NCCc1ccccn1 | inconclusive: 35.5 µM [inhibitor, single point] |
| CS(=O)(=O)c1ccc(CN2C[C@@H]3C[C@H]2C(=O)N(Cc2ccc(OC(F)(F)F)cc2)c2ccccc2O3)cc1 | inconclusive: 17.8 µM [inhibitor, single point] |
| O=C1[C@H]2CN(Cc3cccc(Cl)c3)C[C@H]2C(=O)N1CCN1CCc2ccccc2C1 | inconclusive: 39.8 µM [inhibitor, single point] |
| Cn1nc(C2CCNCC2)c2c(C(=O)NC3CC3)cc(C3CC3)nc21 | inconclusive: 2 µM [inhibitor, single point] |
| Cc1ccc(C)c(N2CCN(C(=O)c3cccn3-c3nnc(N4CCCCC4)s3)CC2)c1 | inconclusive: 20 µM [inhibitor, partial curve, poor fit] |
| COc1cccc(CNC(=O)c2cc3c(=O)n(C)c4ccccc4c3n2C)c1 | inconclusive: 35.5 µM [inhibitor, partial curve, poor fit] |
| CC1=C[C@@H](CN(C)CCC#N)[C@H](C(C)C)C[C@H]1Cc1nnc(-c2ccc(C)cc2)o1 | inconclusive: 63.1 µM [inhibitor, single point] |
| COCCNC(=O)c1cc(-c2ccc(F)cc2)c2nncn2n1 | inactive |
| CC(C)CN1C(=O)c2ccccc2C(C(=O)NC(C)C)C12CCCCC2 (stereo not given) | inconclusive: 7.94 µM [inhibitor, partial curve] |
| Cc1cc(F)ccc1NC(=O)C1CCN(c2cc(C(F)(F)F)ncn2)CC1 | inactive |
| CC#CCn1cc2c3c(cccc31)[C@H](CC(C)C)N[C@H](C(=O)NCCN1CCOCC1)C2 | inactive |
| Cc1ccc(CN2CC[C@H](CO)[C@H](NC(=O)c3cccnc3)C2)s1 | inconclusive: 39.8 µM [inhibitor, single point] |
| COc1ccc(-c2nc3c(c(=O)[nH]2)CCN(C(=O)NCC2CCCO2)C3)cc1 (stereo not given) | inconclusive: 25.1 µM [inhibitor, partial curve, poor fit] |
| COc1cccc(CNC(=O)c2cc(-c3ccc(F)cc3)nc3c2cnn3C)c1 | inactive |
| COc1ccc(OCC2(C)COc3ccc(C(=O)N(C)Cc4ccccc4)cc3N2)cc1 (stereo not given) | inconclusive: 6.31 µM [inhibitor, partial curve, poor fit] |
| CC(=O)c1ccc(NC(=O)Cn2c(=O)oc3cc(S(=O)(=O)N4CCCCC4)ccc32)cc1 | inconclusive: 44.7 µM [inhibitor, partial curve, poor fit] |
| Fc1ccc(C2Cn3nnc(-c4nc(-c5cccc(F)c5)no4)c3CO2)cc1 (stereo not given) | inconclusive: 28.2 µM [inhibitor, single point] |

| Compound | Potency |
| --- | --- |
| Cc1ccc(-n2ncc3c(N4CCCCC4)ncnc32)cc1 | active: 0.891 µM |
| CC(C)CNC(=O)C1CCN(Cc2ccccc2-c2cccnc2)CC1 | inactive |
| CCC(=O)N1CCC(=O)N(CC)C2(CCOCC2)C1 | inconclusive: 39.8 µM [inhibitor, single point] |
| Cc1ccc(C2NC(=O)N(CC(=O)Nc3ccc(Br)c(C)c3)C3=C2C(=O)OC3)cc1 (stereo not given) | inconclusive: 14.1 µM [inhibitor, partial curve, poor fit] |
| CCCN1CCN(C(=O)Cn2ncc3c4ccccc4n(Cc4cccc(Cl)c4)c3c2=O)CC1 | inconclusive: 1 µM [inhibitor, partial curve, poor fit] |
| O=C(Nc1cccc(C(F)(F)F)c1)O[C@@H]1CO[C@H]2[C@@H]1OC[C@@H]2n1nnnc1SC1CCCC1 | inconclusive: 31.6 µM [inhibitor, single point] |
| CC1CC(=O)N(CC(=O)Nc2ccc(OC(F)(F)F)cc2)c2ccccc2S1 (stereo not given) | inconclusive: 39.8 µM [inhibitor, single point] |
| CCOCCn1c(=O)n(Cc2cc(OC)ccn2)c2cc(C(=O)O)cnc21 | inconclusive: 2 µM [inhibitor, partial curve, poor fit] |
| COc1ccc(OC)c(NC(=O)Cn2c(CCC(=O)O)ccc2-c2ccccc2)c1 | inconclusive: 5.62 µM [inhibitor, single point] |
| C[C@@H](NC(=O)c1cccn1C)c1onc(-c2cccnc2)c1C(=O)O | inactive |
| CCOc1ccc(-c2noc(CSc3nnc(Cc4ccccc4)n3-c3ccc(F)cc3)n2)cc1 | inconclusive: 20 µM [inhibitor, single point] |
| CC(C)CN(CC(C)C)S(=O)(=O)c1ccc(C(=O)Nc2sc3c(c2C(N)=O)CCN(C(C)C)C3)cc1 | inconclusive: 39.8 µM [inhibitor, single point] |
| Cc1cccc(N2CCN(c3ncnc4c3cnn4-c3ccc(Cl)cc3)CC2C)c1 (stereo not given) | inconclusive: 3.98 µM [inhibitor, single point] |
| CCN1CCN(CCCNC(=O)c2cnn(-c3ccc(OC)cc3)c2C2CCN(C(=O)OC(C)(C)C)CC2)CC1 | inconclusive: 15.8 µM [inhibitor, partial curve, poor fit] |
| CCOC(=O)c1ccc(NC(=O)N2Cc3[nH]cnc3C[C@H]2c2nc(-c3ccc4c(c3)OCO4)no2)cc1 | inconclusive: 1.26 µM [inhibitor, full curve, poor fit] |
| CC1=Nc2cc(C(=O)NC3CCCC3)ccc2Sc2ccc(Cl)cc21 | inconclusive: 28.2 µM [inhibitor, single point] |
| Cc1ccc2c(c1)nc1n2[C@@H](CNC(=O)c2ccncc2)COC1 | inconclusive: 6.31 µM [inhibitor, full curve, poor fit] |
| CCc1nc2c(=O)n(CC(=O)N3CCC(Cc4ccccc4)CC3)nc(C)c2s1 | inactive |
| CC#C[C@]1(O)CC[C@H]2[C@@H]3CCC4=CC(=O)CCC4=C3[C@@H](c3ccc(N(C)C)cc3)C[C@@]21C | inconclusive: 12.6 µM [inhibitor, partial curve, poor fit] |
| Cc1ccc(-c2cccc(CN3CCCC(N[S+](C)(=O)[O-])C3)c2)cc1Cl (stereo not given) | inconclusive: 39.8 µM [inhibitor, single point] |
